Measured values published in PubChem BioAssay AID1030 (National Center for Advancing Translational Sciences (NCATS), 2008).
In all, about 220,000 compounds went through this assay and about 16,000 (7.3%) were called active. Inconclusive means that the source gave no clear call. Such entries were picked first, then a sample of the others. The call rests on the fitted dose curve; in most records, active means well fitted inhibition curve with a large enough effect (not every such curve was filed as active); inconclusive means small, poorly fitted or top-dose-only effect, or another doubt; inactive means no such curve, though single readings can be large or run the other way. A potency beside an inconclusive call is a rough fit, not a confirmed value.

Molecular target: Aldehyde dehydrogenase 1A1 (Homo sapiens) (UniProt P00352)
Chain of UniProt P00352 (P00352 whole entry, looked up): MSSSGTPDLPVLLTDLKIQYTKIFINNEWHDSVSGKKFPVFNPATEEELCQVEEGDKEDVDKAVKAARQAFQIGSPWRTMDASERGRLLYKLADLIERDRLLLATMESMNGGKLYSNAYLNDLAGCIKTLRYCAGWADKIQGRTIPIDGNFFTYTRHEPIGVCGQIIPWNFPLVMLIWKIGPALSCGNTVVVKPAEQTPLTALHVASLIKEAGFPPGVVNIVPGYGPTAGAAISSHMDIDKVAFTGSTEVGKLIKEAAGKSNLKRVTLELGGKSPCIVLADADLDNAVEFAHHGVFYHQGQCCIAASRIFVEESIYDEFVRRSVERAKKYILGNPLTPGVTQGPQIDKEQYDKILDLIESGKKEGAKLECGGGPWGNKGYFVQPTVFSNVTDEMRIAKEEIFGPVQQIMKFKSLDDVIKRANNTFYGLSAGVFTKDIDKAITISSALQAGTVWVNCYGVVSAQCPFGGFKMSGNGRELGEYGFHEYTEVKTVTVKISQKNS
Experiment: qHTS Assay for Inhibitors of Aldehyde Dehydrogenase 1 (ALDH1A1);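 on activity, negative = inhibition: plate controls were no enzyme wells and a reference inhibitor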
Conditions: Purified ALDH1A1, NADH fluorescence, propionaldehyde substrate; series mostly up to 75.3 µM; activity, negative = inhibition: at the top concentration
Potency means the concentration at half of the fitted maximal effect; tags describe the fitted curve by direction and shape.

Potency, inconclusive:
O=c1c(-c2ccccc2)nc2cnc(N3CCOCC3)nc2n1Cc1cccs1 0.708 µM [inhibitor, partial curve, poor fit]
O=C1NNC(c2ccccc2)=N/C1=C\c1ccco1 25.1 µM [inhibitor, single point]
CC(C)C(=O)Nc1ccc(NC(=O)c2cccs2)cn1 39.8 µM [inhibitor, single point]
CC1(C)CC(=O)C(CC(=O)N2CCC(Cc3ccccc3)CC2)C(=O)C1 39.8 µM [inhibitor, single point]
COc1cc(CN2CCC(C(=O)N3CCC(C)CC3)CC2)cc(Br)c1O 35.5 µM [inhibitor, single point]
O=C(CCN1C(=O)/C(=C/c2ccccc2Cl)SC1=S)NC1=NCCS1 28.2 µM [inhibitor, single point]
CCN(/N=C/c1ccc(N(C)C)cc1)c1nc2ccccc2[nH]1 28.2 µM [inhibitor, partial curve]
Cc1cccc(-c2nnc(SCCOc3ccc4c(C)cc(=O)oc4c3)o2)c1 11.2 µM [inhibitor, partial curve]
CCOC(=O)CNC(=O)CSc1ccc2nnc(-c3cccnc3)n2n1 11.2 µM [inhibitor, partial curve]
O=C(CN1CCN(c2ccccn2)CC1)Nc1ccc(F)cc1 44.7 µM [inhibitor, single point]
COc1ccc(-n2cc(CN3CCCC3)c(-c3cccc(F)c3)n2)cc1 35.5 µM [inhibitor, single point]
COC(=O)COc1ccc(S(=O)(=O)NCc2ccncc2)cc1 39.8 µM [inhibitor, single point]
COc1ccc(-c2cc(C(F)(F)F)n3ncc(C(=O)N4CCCCC4c4cccnc4)c3n2)cc1 (stereo not drawn) 28.2 µM [inhibitor, partial curve]
Cc1ccc(C(=O)OCC(=O)Nc2cccc(Cl)c2C)c(O)c1 37.7 µM [inhibitor, single point]
O=C(N/N=C/c1ccc(N2CCOCC2)cc1)c1ccc(NS(=O)(=O)c2cccs2)cc1 17.8 µM [inhibitor, partial curve]
CCc1ccc(C2C(C#N)=C(N)OC3=C2C(=O)CCC3)s1 (stereo not drawn) 39.8 µM [inhibitor, single point]
O=C1C(c2ccncc2)=C(O)c2ccccc21 39.8 µM [inhibitor, single point]
O=[N+]([O-])c1cc(Cl)c(O)c2ncccc12 39.8 µM [inhibitor, single point]
CC(=O)C1=C(O)C(=O)OC1c1ccc(C)cc1 (stereo not drawn) 28.2 µM [inhibitor, single point]
Cn1cccc1Cc1nnc(SCC(=O)N2CCc3ccccc32)n1CCc1ccccc1 39.8 µM [inhibitor, single point]
Cc1ccc(/C([O-])=C(/C(=S)NCc2ccccc2)[n+]2ccccc2)cc1[N+](=O)[O-] 39.8 µM [inhibitor, single point]
O=C(Nc1ccc(Cl)c(S(=O)(=O)N2CCOCC2)c1)c1ccccc1-c1ccc(C(F)(F)F)cc1 44.7 µM [inhibitor, single point]
CCOC(=O)C(C)Sc1nnc(NC(=O)c2cccc([N+](=O)[O-])c2C)s1 (stereo not drawn) 37.7 µM [inhibitor, single point]
COc1cc(CNc2ccccc2SC)ccc1O 35.5 µM [inhibitor, single point]
COc1cccc(N2CCN(C(=O)C3C4C=CC5(CN(Cc6ccccc6Cl)C(=O)C35)O4)CC2)c1 (stereo not drawn) 39.8 µM [inhibitor, single point]
COc1ccc(-c2ccc(-c3noc(C4CCCCC4)n3)c(OC)n2)cc1 25.1 µM [inhibitor, partial curve]
Cc1nn(C)cc1CNCc1ccc(OCC(O)CN(C)Cc2ccccc2)cc1 (stereo not drawn) 35.5 µM [inhibitor, single point]
Cc1ccc(C(NC(N)=O)c2ccccc2C)cc1 (stereo not drawn) 39.8 µM [inhibitor, single point]
CCCCN(CC)c1nc(-c2ccncc2)nc2ccccc12 39.8 µM [inhibitor, single point]
COc1ccc(C(=O)Nc2ccccc2C(=O)NC(Cc2ccc(O)cc2)C(=O)NNC(=O)c2ccncc2)cc1 (stereo not drawn) 39.8 µM [inhibitor, single point]
CC(C)NC(=O)COC(=O)c1cc(=O)[nH]c2ccccc12 35.5 µM [inhibitor, partial curve]
Cc1cc(=O)oc2cc(OC(C)C(=O)N3CCOCC3)ccc12 (stereo not drawn) 25.1 µM [inhibitor, partial curve]
Cn1cccc1Cc1nnc(SCC(=O)Nc2ccc(Cl)cc2)n1-c1ccc(F)cc1 37.7 µM [inhibitor, single point]
CC(C)c1ccc(S(=O)(=O)c2nnn3c2nc(N2CCCCC2)c2ccccc23)cc1 14.1 µM [inhibitor, partial curve]
CCc1cc2c(NCCC(=O)O)nc(C)nc2s1 39.8 µM [inhibitor, single point]
Cc1nc2c(C)cccc2cc1C(=O)N/N=C/c1ccc(O)cc1 39.8 µM [inhibitor, single point]
COc1ccc2c(c1OC)C(=O)N(c1ccccn1)C2 31.6 µM [inhibitor, partial curve]
COc1cc(/C=N/NC(=O)/C(=C\c2ccc([N+](=O)[O-])cc2)NC(=O)c2ccccc2)cc(OC)c1O 31.6 µM [inhibitor, single point]
COC(=O)c1nnn(-c2nonc2N)c1CSCCO 39.8 µM [inhibitor, single point]
COn1c(-n2nc(C)cc2C)nc2ccccc2c1=O 25.1 µM [inhibitor, partial curve, poor fit]
O=C(Cn1c(=O)c(=O)n(Cc2ccccc2)c2ccc(Cl)cc21)Nc1cccc(F)c1 35.5 µM [inhibitor, single point]

Potency, active:
Cc1ccc(C(=O)C[n+]2cc(Br)cc(Br)c2)cc1[N+](=O)[O-] 15.8 µM
CCCC(O)(CCC)C(=O)NN(C(=O)CCl)c1ccccc1 25.1 µM
O=[N+]([O-])c1ccc(O)c(NC(=S)Nc2ccccc2)c1 22.4 µM
COc1ccc(C/C(C)=N/NC(=S)Nc2ccccc2)cc1 22.4 µM
O=C(COc1ccc(Br)cc1Br)NC(=S)N1CCCc2ccccc21 11.2 µM
COc1ccc(C(=O)N2CC3(CC(c4cccc([N+](=O)[O-])c4)=NO3)C[C@H]2C(=O)NCC(N)=O)cc1 (stereo partly drawn) 11.2 µM
O=C(/C=C/c1ccc(Br)o1)Nc1nccs1 22.4 µM
COc1ccc(C(=O)NC(=S)NNC(=O)c2cnccn2)cc1 17.8 µM
O=C1OC(c2ccccc2)/C(=C(/O)c2ccc(Cl)cc2)C1=O (stereo not drawn) 37.7 µM
COc1cc(OC)c(C(=O)COc2ncnc3ccccc23)c(OC)c1 15.8 µM
CN1CC(=O)N(CC(=O)Nc2cc(Cl)cc(Cl)c2)C1=O 10 µM
Cc1nnc(SCCn2c(Br)nc3c2c(=O)[nH]c(=O)n3C)s1 7.94 µM
CCCN1C(=O)/C(=C\C=C2/C=CN(CC)c3ccccc32)SC1=S 5.01 µM
O=C(NC12CC3CC(CC(C3)C1)C2)c1cc([N+](=O)[O-])ccc1N1CCOCC1 12.6 µM
N#CCC(=O)NNC(=S)Nc1ccccc1C(F)(F)F 17.8 µM
COc1nc(N/N=C/c2ccc(-c3ccccc3[N+](=O)[O-])o2)nc(N2CCOCC2)n1 8.91 µM
Cc1nc(N2CCCCC2)sc1C(=O)c1ccc(SCCO)c([N+](=O)[O-])c1 12.6 µM

activity, negative = inhibition, inactive:
COC(=O)[C@H](C)NC(=O)NCc1ccccc1F 6.64%
Cn1cccc1CNC(=S)Nc1ccccc1F -2.58%
CCN(CC)S(=O)(=O)c1ccc2oc(C(=O)N3CCOCC3)c(C)c2c1 6.38%
COCCCNC(=O)c1cccc(OC)c1OC 1.99%
COC(=O)CCCC1=CC2=C(c3ccccc3)C(=O)C(C)(OC(=O)C3CCCC3)C(=O)C2=CN1CC1CC1 (stereo not drawn) 0.0683% [at 13.5 µM]
COCCN(CCOC)C(=O)c1ccc(SCc2ccc(C)cc2)c([N+](=O)[O-])c1 -12.4%
CC1(C)CC(N(Cc2ccccc2)C(=O)Cc2ccccc2)CCO1 (stereo not drawn) 8.75%
CCOC(=O)NC(=S)Nc1c(C)n(C)n(-c2ccccc2)c1=O 1.88%
c1ccc(CSc2ccc(-c3cccnc3)nn2)nc1 4.71%
CCc1nnc(NC(=O)CSc2nnc(-c3cccnc3)n2C)s1 2.24%
Cc1ccc(S(=O)(=O)NCC(=O)OCC(=O)N2CCc3ccccc32)cc1 0.157%
Cc1cc(C)n2nc(SCc3nnc(SCc4ccccc4)s3)nc2n1 -0.583%
COc1ccc(C2C(=O)c3ccccc3C2=O)cc1OC -2.85%
CCCCC(=O)O[C@]1(C(=O)CO)[C@H](C)C[C@H]2[C@@H]3CCC4=CC(=O)C=C[C@]4(C)[C@@]3(F)[C@@H](O)C[C@@]21C -0.404%
Cc1nc(N2CCCCC2)c2ccsc2n1 -10.1%
